# Test results from PubChem BioAssay AID1508624 (National Center for Advancing Translational Sciences (NCATS), 2021).
# The campaign covered roughly 48,000 compounds. About 120 (0.25%) were called active. Not shown: some 4% with an inconclusive outcome. Calls come from the whole dose curve; as a rule, active = well fitted activation curve with a large enough effect; inconclusive = small, poorly fitted or top-dose-only effect, or another doubt; inactive = no such curve, though single readings can be large or run the other way. This is one part of the list.
# Assay: Primary qHTS for Identification of Small Molecule Activators of Huntingtin-Antisense Promoter Activity; note: nearly all actives have a fitted effect of over 55% in size
# Conditions: HEK293 HTT-AS promoter firefly luciferase reporter, 24 h; series mostly up to 57.5 µM; activity change, positive = activation: at the top concentration
# Outline: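 HEK293 Fluc reporter, 2,500 cells/well, 24 h pre-culture; cpds up to 57.5 uM final, 24 h 37 degrees C; Dual-Glo, 10 min RT; normalized vehicle = 0%, zero RLU = -100%.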
# Potency is the fitted concentration of half-maximal effect.
Structure (SMILES),"activity change, positive = activation",Potency
CC1CCCCN1CCCNC(=O)CN1C(=O)CSc2ccc(S(=O)(=O)N3CCOCC3)cc21 (stereo not drawn),inactive: -8.39%,
COc1ccc(OC)c(NC(=O)Cn2ccn(-c3ccc(OC)c(OC)c3)c(=O)c2=O)c1,inactive: -1.08%,
COc1ccc(-c2nnn3c2nc(NCc2ccc(C)cc2)c2ccccc23)cc1,inactive: -4.54%,
Cc1cc(C)c(NC(=O)C(C)n2c(=O)cc(-c3ccccc3)c3c(C)nn(C)c32)c(C)c1 (stereo not drawn),inactive: -0.712%,
CCCNC(=O)CSc1c(CCC)cnc2c1c(=O)n(C)c(=O)n2C,inactive: -4.06%,
CC(C)COCC(CN(Cc1ccccc1)c1ccccc1)N1CCCC1 (stereo not drawn),inactive: -31.5%,
O=C(CCOCCOCCOCCOCCC(=O)Nc1c(I)cc(I)c(C(=O)O)c1I)Nc1c(I)cc(I)c(C(=O)O)c1I,inactive: -4.42%,
C[C@H]1[C@@H](OC(=O)CCC(=O)O)O[C@@H]2O[C@@]3(C)CC[C@@H]4[C@H](C)CC[C@@H]1[C@@]24OO3,inactive: -31.2%,
O=C(CN1C(=O)C2(SCC(=O)N2c2cccc(F)c2)c2ccccc21)NCCc1ccccc1 (stereo not drawn),inactive: -8.12%,
O=C(NCCc1csc(-c2cccnc2)n1)c1ccccc1,inactive: 5.85%,
CCOC(=O)c1cnc(N2CCN(c3cccc(C)c3C)CC2)c2ccccc12,inactive: 1.39%,
Cc1ccccc1C(=O)OCc1cc(=O)n2nc(C3CCCCC3)sc2n1,inactive: 9.12%,
Cc1nnc2c(N3CCN(c4ccc(F)cc4)CC3)nc3ccc(C(=O)c4ccccc4)cc3n12,inactive: -1.55%,
CCOc1ccccc1NC(=O)CN(C)S(=O)(=O)c1ccc(C(=O)N2CCOCC2)s1,inactive: 0.783%,
O=c1c(=O)n(-c2ccc(F)c(F)c2)ccn1Cc1ccc(F)cc1Cl,inactive: -0.412%,
COc1ccc(C)cc1NC(=O)C1CCCN(c2ncnc3onc(C)c23)C1 (stereo not drawn),inactive: -26.8%,
Cc1cccc(NC(=O)CCn2cnc3ccccc3c2=O)c1,"inactive: -2.21% [at 11.5 µM, percent change from vehicle, -100% = no light]",
CCCc1nnc(NC(=O)c2nc(SCC)ncc2Cl)s1,inactive: 14.8%,
CCOC(=O)C1=C(CS(=O)(=O)c2ccc(F)c(C)c2)NC(=O)NC1c1ccccc1OC (stereo not drawn),inactive: -18.4%,
CCOC(=O)c1noc2ncn(CC(=O)Nc3cccc(C(F)(F)F)c3)c(=O)c12,inactive: -11.7%,
CCc1nn(CC(=O)N2CCCCC2)c(=O)c2cc3occc3n12,inactive: -9.56%,
CN(C)/N=N/c1nc[nH]c1C(N)=O,inactive: 0.831%,
CCOc1ccc(NC(=O)N2CCN(c3nnc(C)c4c(C)n(-c5ccccc5)nc34)CC2)cc1,inactive: -6.62%,
COc1ccc(-n2nc(C(=O)Nc3cc(C)ccn3)c3c4ccccc4n(C)c3c2=O)cc1,inactive: 3.94%,

Structure (SMILES),"activity change, positive = activation",Potency
CCCCn1c(=O)n(-c2cc(OC)ccc2OC)c(=O)c2c3c(sc21)CN(C(C)=O)CC3,inactive: -14.3%,
Cc1cc(Nc2cccc(Cl)c2)nc2ccc(NC(=O)c3cncc(Br)c3)cc12,inactive: -54.2%,
O=C(CC1N=C2c3ccccc3N=C(SCc3ccccc3Cl)N2C1=O)NCCc1ccccc1 (stereo not drawn),inactive: -18.6%,
CCOc1ccc(-n2nc3ccc(NC(=O)c4ccc(OC)c(Cl)c4)cc3n2)cc1,inactive: -0.247%,
Cc1ccc2c(=O)cc(C(=O)Nc3sc4c(c3C(=O)NCC3CCCO3)CCC4)oc2c1 (stereo not drawn),inactive: -2.67%,
CCC(C(=O)NCc1ccccc1OC)n1nc(C)n2c(cc3occc32)c1=O (stereo not drawn),inactive: -18.2%,
Cc1oc(-c2ccccc2Cl)nc1CS(=O)(=O)CC(=O)NCc1ccc(F)cc1,inactive: -29.9%,
COC(=O)c1cccc(NC2=NS(=O)(=O)c3ccccc32)c1,inactive: -3.45%,
CCCCCC1Nc2cc(C(F)(F)F)c(S(N)(=O)=O)cc2S(=O)(=O)N1 (stereo not drawn),inactive: -4.77%,
COc1ccc(C)cc1NC(=O)C1CCN(S(=O)(=O)c2cc(Br)cc3c2N(C(C)=O)CC3)CC1,inactive: -0.357%,
CCc1nn2c(=O)cc(COC(=O)c3ccccc3)nc2s1,,active: 3.98 µM
CCOc1ccccc1NC(=O)N(Cc1ccc(C)o1)C1CCN(C(C)=O)CC1,inactive: -17%,
COc1ccc(C)c2sc(N3CCN(C(=O)c4cccc(F)c4)CC3)nc12,inactive: -8.91%,
CCOC(=O)CNC(=O)N1CCCN(S(=O)(=O)c2ccc3c(ccn3CC)c2)CC1,inactive: -1.81%,
Cc1ccc(-c2cc3ncc4c(n3n2)-c2cc(F)ccc2OC4)cc1,inactive: 6.38%,
CCc1ccc(C(=O)c2cn(CC(=O)Nc3cccc(OC)c3)c3cc4c(cc3c2=O)OCO4)cc1,inactive: -20.6%,
O=C(CSc1nnc(-c2ccc(Cl)cc2)o1)c1ccc([N+](=O)[O-])cc1,inactive: -7.06%,
CCn1c(SCc2c(F)cccc2Cl)nc(=O)c2c(C(=O)OC)cc(C3CC3)nc21,inactive: 11%,
O=C(c1ccccc1Br)N(Cc1ccco1)Cc1ccco1,inactive: -29.8%,
CC1Cc2ccccc2N1C(=O)CSc1nc2ccc(NC(=O)COc3ccccc3)cc2s1 (stereo not drawn),inactive: -25.8%,
CC1=C(C(=O)NCc2cccc(F)c2)C2(CCCCC2)OC1=O,inactive: -16.7%,
CCOC(=O)C(C)Sc1ccc2nnc(CCNS(=O)(=O)c3ccc(C)cc3)n2n1 (stereo not drawn),inactive: 1.26%,
CCCCOC(=O)c1ccc(N)cc1,inactive: 24.4%,
N#Cc1c(C(F)(F)F)cc(-c2cccs2)nc1SCc1ccc(F)cc1,inactive: -4.7%,

Structure (SMILES),"activity change, positive = activation",Potency
Cc1ccccc1CSc1cn(CC(=O)N2CCCCC2)c2ccccc12,inactive: 7.63%,
CCOC(=O)c1c(C)oc2nc(C)nc(NCC3CCN(Cc4ccc(C)cc4)CC3)c12,inactive: -19.1%,
Cc1nn(C)cc1CN(C)C(=O)c1cc(-c2ccccc2)nc2ccc(Br)cc12,inactive: -21.2%,
CCOc1ccc(CCNC(=O)c2oc(=O)c3ccccc3c2-c2ccc(C)cc2)cc1OCC,inactive: -29.9%,
Cc1ccc(NC(=O)CCS(=O)(=O)c2ccc(Br)s2)c(Br)c1,inactive: -18.1%,
CC(C)(C)c1ccc(C(=O)NCCc2csc(-c3ccc(Cl)cc3)n2)cc1,inactive: -13.2%,
COc1ccc(C(=O)Nc2ccc(N(C)Cc3ccccc3)c(C(=O)O)c2)cc1,inactive: -5.7%,
CCOC(=O)Cn1c(=O)n(CC2CCCO2)c2nc(-c3ccccc3)nc(C(N)=O)c21 (stereo not drawn),inactive: -3.38%,
CCOC(=O)C1=C(CN2CCN(c3ccccc3OC)CC2)NC(=O)NC1c1ccccc1 (stereo not drawn),inactive: -32.7%,
Cc1cc(C)cc(NC(=O)N2CCC(CN3CCOCC3)CC2)c1,inactive: -3.9%,
CC(C)NC(=O)N1[C@H](c2cccs2)[C@@H](C)C(=O)[C@@H](C)[C@@H]1c1cccs1,inactive: -14.1%,
O=C(Nc1ccc(C(=O)O)c(O)c1)c1ccccc1,inactive: -3.93%,
O=C(CN1CCCN(Cc2ccccc2F)S1(=O)=O)Nc1ccc(F)c(Cl)c1,inactive: -19.3%,
Cc1ccc(CNCc2ccccc2Cl)s1,inactive: 20.9%,
COc1ccc(-c2nnc(SCC(=O)NCCC(C)C)nc2-c2ccc(OC)c(OC)c2)cc1OC,inactive: -24.5%,
COCc1cc(C)nc2c1C(=O)NC(c1ccc(F)cc1)N2Cc1ccccc1 (stereo not drawn),inactive: -13.5%,
COC(=O)c1cc2oc(C)cc2n1CC(=O)Nc1ccc(C(C)C)cc1,inactive: -1.11%,
CCCCNC(=O)c1ccc2c(=O)n(Cc3ccc(OC)cc3)c(=O)[nH]c2c1,inactive: -7.4%,
Cc1cc(S(=O)(=O)C(CNC(=O)c2ccc(F)c(F)c2)c2cccs2)ccc1F (stereo not drawn),inactive: -8.97%,
Cc1ccc(S(=O)(=O)n2nc(-c3ccc(Cl)cc3)nc2NCc2ccc(F)cc2)cc1,inactive: -4.57%,
Cc1cc(C)c2c(CC(=O)Nc3ccc(S(=O)(=O)Nc4nc(C)cc(C)n4)cc3)coc2c1,inactive: -35.8%,
COc1ccc(CNC(=O)c2cc3cc(OC)ccc3oc2=O)cc1,inactive: -5.68%,
CC[C@]1(O)C[C@H]2CN(CCC3=c4ccccc4=N[C]3[C@@](C(=O)OC)(c3cc4c(cc3OC)N(C)[C@H]3[C@@](O)(C(N)=O)[C@H](O)[C@]5(CC)C=CCN6CC[C@]43[C@@H]65)C2)C1,inactive: -33.1%,
Cc1ccc(-c2ccc(=O)n(CC(=O)NCCc3ccccc3)n2)cc1,inactive: -8.58%,

Structure (SMILES),"activity change, positive = activation",Potency
O=S(=O)(NCCc1csc2nc(-c3ccccc3)nn12)c1cc(F)ccc1F,inactive: -21.1%,
Cc1ccc(-n2ncc3c(Nc4cccc(C(=O)O)c4)ncnc32)cc1,inactive: -22.5%,
Cc1cccc(/C=C/c2onc(C)c2S(=O)(=O)N2CCC(C(=O)N3CCCCC3)CC2)c1,inactive: -32.7%,
COc1ccc(-c2[nH]c(-c3ccc(Cl)cc3)nc2SCC(=O)NCC2CCCO2)cc1 (stereo not drawn),inactive: -22.5%,
CCCCn1cnc2cc(NCc3ccccc3Cl)ccc21,inactive: -9.58%,
Cc1ccc(NC(=O)C(=O)NCC(c2cccnc2)N2CCN(Cc3ccccc3)CC2)cc1F (stereo not drawn),inactive: -22.7%,
CCCSCCCNC(=O)C1CCN(c2nc3ccccc3nc2C(F)(F)F)CC1,inactive: -15.3%,
CCc1ccccc1NS(=O)(=O)c1ccc2[nH]cc(C(=O)N(CC)Cc3ccccc3)c(=O)c2c1,inactive: -18.3%,
CCCc1ccc(OCC(=O)Nc2sc(C(=O)OCC)c(C)c2C(=O)OCC)cc1,inactive: -0.0748%,
Cc1ccc(C)c(N2CCN(S(=O)(=O)c3ccc4c(c3)C(C(C)C)C(=O)N4)CC2)c1 (stereo not drawn),inactive: -33.6%,
CSc1ncc(C(=O)NCc2ccccc2F)c(-c2ccccc2)n1,inactive: -14.3%,
COc1cccc(-c2nc(CS(=O)(=O)CC(=O)N3CCN(c4cc(C)ccc4C)CC3)c(C)o2)c1,inactive: -47%,
CCc1ccc(C2CC(=O)c3c([nH]c(C(=O)OC4CCCC4)c3C)C2)cc1 (stereo not drawn),inactive: 13.8%,
CCOC(=O)c1ccc(CN(Cc2ccc(F)cc2)S(=O)(=O)c2ccc(F)c(C(=O)Nc3c(C)cccc3C)c2)cc1,inactive: -11.2%,
COc1ccc(OC)c(C2CC(=O)Nc3c2c(=O)[nH]c2ncnn32)c1 (stereo not drawn),inactive: 1.47%,
COc1ccc(C2NC(=O)N(C)C3=C2C(=O)N(c2ccc(C(=O)O)cc2)C3)cc1 (stereo not drawn),inactive: -3.89%,
CCOc1ccc(NC(=O)Cn2c(=O)n(CCCCCC(=O)NCc3ccccc3)c(=O)c3sccc32)cc1,inactive: 1.17%,
CCc1ccc2occ(CC(=O)Nc3c(C(=O)c4ccc(C)cc4)oc4ccccc34)c2c1,inactive: -5.05%,
COc1ccc(S(=O)(=O)Nc2c(C)nc3nc[nH]n3c2=O)cc1,inactive: -2.17%,
O=[N+]([O-])c1cccc(S(=O)(=O)NCCNS(=O)(=O)c2cccc([N+](=O)[O-])c2)c1,inactive: -20%,
Cc1ccc2c(CNCc3ccc(C)o3)c(C(=O)O)n(Cc3ccccc3C)c2c1,inactive: -28%,
